Results from publication PMC7819943, “Rice protein-binding microarrays: a tool to detect cis-acting elements near promoter regions in rice”.
The list shows a part of the results.

Biological target: T1, OsWOX13 (Oryza sativa, UniProt Q5QMM3 1-267)
T1 sequence: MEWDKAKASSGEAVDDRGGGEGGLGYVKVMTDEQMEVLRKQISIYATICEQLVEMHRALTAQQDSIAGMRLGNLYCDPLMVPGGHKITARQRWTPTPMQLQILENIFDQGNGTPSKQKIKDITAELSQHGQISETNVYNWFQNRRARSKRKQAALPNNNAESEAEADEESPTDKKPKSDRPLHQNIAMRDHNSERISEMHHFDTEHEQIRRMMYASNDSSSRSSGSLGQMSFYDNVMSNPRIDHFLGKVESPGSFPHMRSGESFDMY
Test: protein-binding microarray (RPBM); PBS, 2% BSA, 51.3 ng/ul salmon testes DNA, 50 uM zinc acetate, 200 nM TF, 25 C, 1 h; high values mean tight binding
Conditions: protein: recombinant; tags: N-terminal polyhistidine and DsRed monomer fusion (pET32a); label: CyDye5-dUTP incorporated in the synthesized complementary strand; 3' TTTTT single-stranded linker to array surface; dsDNA, one strand shown
Summary of the method: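 For the binding signal, per-feature fluorescence intensity was read in arbitrary units on an Axon 4000B scanner. Before scanning, a 2% BSA-blocked custom Agilent array made double-stranded with Cy5-dUTP was washed after 1 h at 25 °C with 200 nM protein and 50 µM zinc acetate. The proteins were Ni–NTA-purified transcription factors with N-terminal polyhistidine and DsRed fusions, expressed in E. coli BL21-CodonPlus.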

Going from “CTCACTCCTAATTACTAAATATTCCACCTCAGCAATCTTCCGGAGTCACCTAGTGCAG” to “ATTTTCAATCAATATGAACAATTTTACTAAATCTGACTTTCGGAGTCACCTAGTGCAG”, the binding signal rises from 6450 fluorescence intensity (a.u.) to 19000 fluorescence intensity (a.u.).

First: ATCTATAATTAGAGAGAACGCAACTGAACCGAAAATCGTACGGAGTCACCTAGTGCAG
Second: ATAAAATTAAATCAACTTTAAACTTGCATTAACTGACGAACGGAGTCACCTAGTGCAG
The binding signal of the first is lower: 6660 fluorescence intensity (a.u.) for the first, 15300 fluorescence intensity (a.u.) for the second.

Going from “AAAAGTTTGAATTAGAATAATTGATATGACAAAACGTACTCGGAGTCACCTAGTGCAG” to “GAAACTAACTTTGGTGATGATTTACGCACATGAGACAAAGCGGAGTCACCTAGTGCAG”, the binding signal falls from 9920 fluorescence intensity (a.u.) to 7500 fluorescence intensity (a.u.).

Going from “GCTATTATTCTTTAATGACTGCCATTTCAGAATCTATGCACGGAGTCACCTAGTGCAG” to “AGTAATTATTTATTCTTTTCATATCATTTGATTCATTGTTCGGAGTCACCTAGTGCAG”, the binding signal rises from 3970 fluorescence intensity (a.u.) to 17900 fluorescence intensity (a.u.).

Compared with “GGTTATTTGATTGATTTGGGCCGGCTGTCCACGAAAATCACGGAGTCACCTAGTGCAG”, “CACAGATACCCATGATTGCACTTATTTTGTGACGGGTGTACGGAGTCACCTAGTGCAG” is lower in binding signal: 36700 fluorescence intensity (a.u.) for the first, 7850 fluorescence intensity (a.u.) for the second.

Going from “AACTATGGTATAATTGAAGTGTAATTATATTGTAATTGCACGGAGTCACCTAGTGCAG” to “TTGCTAAATTTAGTCAATACATAAGAAATTCTGTCAAAATCGGAGTCACCTAGTGCAG”, the binding signal falls from 20800 fluorescence intensity (a.u.) to 4800 fluorescence intensity (a.u.).

First: GATATTTTGTTTATTTGTGTTCCTTCTTAAGTCCTTTATTCGGAGTCACCTAGTGCAG
Second: CAGATATAAATTGAGCGACTTCCAGAGTGATCAGCACTACCGGAGTCACCTAGTGCAG
The binding signal of the first is lower: 3410 fluorescence intensity (a.u.) for the first, 7440 fluorescence intensity (a.u.) for the second.

Going from “ACCAATTATAAACACAAGTTAATGGGCAAATGACATGGAACGGAGTCACCTAGTGCAG” to “CTATGATTATGGCTTTGTACCTGTCACGCTGACATCACTCCGGAGTCACCTAGTGCAG”, the binding signal rises from 11500 fluorescence intensity (a.u.) to 37300 fluorescence intensity (a.u.).

Compared with “CCTGATGAACAGTATAGGTGGTAAGATAAAATTTGAGCTCCGGAGTCACCTAGTGCAG”, “TAATTGATTAATTAATAATACTCCAGCTGCAGCAACGGCACGGAGTCACCTAGTGCAG” is higher in binding signal: 3420 fluorescence intensity (a.u.) for the first, 47300 fluorescence intensity (a.u.) for the second.

First: CGGAAATAATTTTGGACATCATATCATTTGCCGGCAATTACGGAGTCACCTAGTGCAG
Second: TTCCACCAAATTACCAAATCATTAGCACAGGCCAGCTCGACGGAGTCACCTAGTGCAG
The binding signal of the first is lower: 3450 fluorescence intensity (a.u.) for the first, 12100 fluorescence intensity (a.u.) for the second.

Going from “CATCAATAATAGAAATTCAATCGTTTACCCTTCAGTTTATCGGAGTCACCTAGTGCAG” to “TTTTATGAGAGATTTGATAATTTATCACTTATTTAAGTGGCGGAGTCACCTAGTGCAG”, the binding signal falls from 7050 fluorescence intensity (a.u.) to 3480 fluorescence intensity (a.u.).

Compared with “AAAATGATTTTCTTTTCAAGAGGTTGAAGCTCATGTTAGACGGAGTCACCTAGTGCAG”, “ACTGCAGTAACAGACAGATACATGGATCGATGCACTTGATCGGAGTCACCTAGTGCAG” is lower in binding signal: 6720 fluorescence intensity (a.u.) for the first, 3620 fluorescence intensity (a.u.) for the second.

Going from “AGTAGATTAATGGTGGAAGAAATTAAGGAGGCTATGACACCGGAGTCACCTAGTGCAG” to “AATGATTGAAATCGGGGCGCAAATTATTGCGATTATTATTCGGAGTCACCTAGTGCAG”, the binding signal rises from 7500 fluorescence intensity (a.u.) to 49400 fluorescence intensity (a.u.).

First: TTTGTCCTAATTAAGTGCTACGGTTACTTCGCATCTAGTTCGGAGTCACCTAGTGCAG
Second: CTAATTATTTAGTCTCTTTATATTTATAAAATGCACATACCGGAGTCACCTAGTGCAG
The binding signal of the first is higher: 5410 fluorescence intensity (a.u.) for the first, 3450 fluorescence intensity (a.u.) for the second.

Compared with “ACTGCTCGATTAATTGGTACTGATACTGTCCGCTCCATGACGGAGTCACCTAGTGCAG”, “GATAACATATTCCTAACAGATGGAGCAAGCCCAGCAGTATCGGAGTCACCTAGTGCAG” is lower in binding signal: 20700 fluorescence intensity (a.u.) for the first, 4270 fluorescence intensity (a.u.) for the second.

First: TGAACTAAACAGTGCCTAATTTATCGGACTAATCGGCCGTCGGAGTCACCTAGTGCAG
Second: ATTATACTTATATTAATTTAGATGAATGGGCAAATAGCATCGGAGTCACCTAGTGCAG
The binding signal of the first is lower: 4480 fluorescence intensity (a.u.) for the first, 5080 fluorescence intensity (a.u.) for the second.

Compared with “TCCTTGACTGCTTCCTTTCTCTTGTAAAGTAAATGTTAGCCGGAGTCACCTAGTGCAG”, “GGTTCACCAATCACCAGTAGTGAGCCCATTCTATCTTGTACGGAGTCACCTAGTGCAG” is lower in binding signal: 17000 fluorescence intensity (a.u.) for the first, 6580 fluorescence intensity (a.u.) for the second.

First: AGCAAATTAATATGGATTACTTCCACTTGCAAAGCTGCAACGGAGTCACCTAGTGCAG
Second: AGTGGTGATGGGCACAATGGTGATTAGAGTGGCGGAGATCCGGAGTCACCTAGTGCAG
The binding signal of the first is higher: 27100 fluorescence intensity (a.u.) for the first, 7460 fluorescence intensity (a.u.) for the second.

Going from “ATGTAACTGAGATTGATGTAGTATCAGAGATACAAGAAGACGGAGTCACCTAGTGCAG” to “ACAAGATTGTTTCAAACATAATTTCAACCCGATGATAAAGCGGAGTCACCTAGTGCAG”, the binding signal falls from 15700 fluorescence intensity (a.u.) to 12900 fluorescence intensity (a.u.).

First: CTGTAACATTCAATGATTTCCTATGGGCATTCGGCATACTCGGAGTCACCTAGTGCAG
Second: CCAAGAGGAGTAATTTGATTGGCTAAGGCAGAGAATAGAGCGGAGTCACCTAGTGCAG
The binding signal of the first is lower: 10400 fluorescence intensity (a.u.) for the first, 28100 fluorescence intensity (a.u.) for the second.

Going from “AGGATTAGCAATATATTTATGATGTCATCAGGGCTAGTGACGGAGTCACCTAGTGCAG” to “TGAAATTAGTATTGAAAATCAATTTCGGGATTTATTTTATCGGAGTCACCTAGTGCAG”, the binding signal falls from 4170 fluorescence intensity (a.u.) to 3260 fluorescence intensity (a.u.).
